Test results taken from patent US20160082079A1.

B1: FZD8-Fc variant 54F15 (Fc fusion)
chain: ASAKELACQEITVPLCKGIGYNYTYMPNQFNHDTQDEAGLEVHQFWPLVEIQCSPDLKFFLCSMYTPICLEDYKKPLPPCRSVCERAKAGCAPLMRQYGFAWPDRMRCDRLPEQGNPDTLCMDYNRTDLTTAAP[omitted - human IgG1 Fc]
B2: FZD8-Fc variant 54F16 (Fc fusion)
chain: ASAKELACQEITVPLCKGIGYNYTYMPNQFNHDTQDEAGLEVHQFWPLVEIQCSPDLKFFLCSMYTPICLEDYKKPLPPCRSVCERAKAGCAPLMRQYGFAWPDRMRCDRLPEQGNPDTLCMDYNRTDL[omitted - human IgG1 Fc with C220S (EU numbers) and a few adjoining residues]
B3: FZD8-Fc variant 54F09 (Fc fusion)
chain: ASAKELACQEITVPLCKGIGYNYTYMPNQFNHDTQDEAGLEVHQFWPLVEIQCSPDLKFFLCSMYTPICLEDYKKPLPPCRSVCERAKAGCAPLMRQYGFAWPDRMRCDRLPEQGNPDTLCMDYNRTDLTTAAPSPP[omitted - human IgG1 Fc]

target: Wnt3a; assay: cell-based or functional assay

Row | % Relative Activity (blocking of Wnt3a-induced TCF luciferase reporter in STF293 cells, relative to a reference standard set at 100%) | Binder
1 | 128% | B1
2 | 125% | B2
3 | 156% and 157% | B3

Values joined by “and” are separate entries in the source; they are usually repeats but may differ in a detail not shown here. Equal entries are not always repeated.
